Experimental findings from article PMC8080764 are described below.

In experiment [1] the target is T1, HA-tagged SRF, full length (pCGN-SRF-HA) (UniProt P11831).
T1 sequence: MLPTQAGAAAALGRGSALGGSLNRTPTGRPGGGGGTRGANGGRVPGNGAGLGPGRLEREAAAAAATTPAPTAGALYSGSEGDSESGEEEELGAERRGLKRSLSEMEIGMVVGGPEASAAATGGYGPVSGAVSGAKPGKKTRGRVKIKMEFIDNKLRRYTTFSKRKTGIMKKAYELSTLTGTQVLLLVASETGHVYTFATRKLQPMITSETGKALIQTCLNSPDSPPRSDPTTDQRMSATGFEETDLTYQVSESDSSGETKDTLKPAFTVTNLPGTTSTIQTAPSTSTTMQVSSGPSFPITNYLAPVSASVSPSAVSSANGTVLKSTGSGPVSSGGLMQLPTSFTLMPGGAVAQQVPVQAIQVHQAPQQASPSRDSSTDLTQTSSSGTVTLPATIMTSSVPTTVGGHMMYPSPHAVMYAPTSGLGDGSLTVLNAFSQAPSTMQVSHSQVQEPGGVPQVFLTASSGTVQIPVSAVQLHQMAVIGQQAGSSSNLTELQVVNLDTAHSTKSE
As to the kind of experiment: co-IP; pCMV-3xFlag-KDM2B and pCGN-HA-SRF (full length or truncations) transfected into 293T cells (cell line of Fig. 3e not named); IP with anti-Flag (KDM2B), inverse IP by HA-SRF; 0.5% NP40 lysis buffer, overnight at 4 °C.

Experiment [2] addresses T2, 3xFlag-KDM2B (pCMV-3xFlag-KDM2B) (UniProt Q8NHM5).
T2 sequence: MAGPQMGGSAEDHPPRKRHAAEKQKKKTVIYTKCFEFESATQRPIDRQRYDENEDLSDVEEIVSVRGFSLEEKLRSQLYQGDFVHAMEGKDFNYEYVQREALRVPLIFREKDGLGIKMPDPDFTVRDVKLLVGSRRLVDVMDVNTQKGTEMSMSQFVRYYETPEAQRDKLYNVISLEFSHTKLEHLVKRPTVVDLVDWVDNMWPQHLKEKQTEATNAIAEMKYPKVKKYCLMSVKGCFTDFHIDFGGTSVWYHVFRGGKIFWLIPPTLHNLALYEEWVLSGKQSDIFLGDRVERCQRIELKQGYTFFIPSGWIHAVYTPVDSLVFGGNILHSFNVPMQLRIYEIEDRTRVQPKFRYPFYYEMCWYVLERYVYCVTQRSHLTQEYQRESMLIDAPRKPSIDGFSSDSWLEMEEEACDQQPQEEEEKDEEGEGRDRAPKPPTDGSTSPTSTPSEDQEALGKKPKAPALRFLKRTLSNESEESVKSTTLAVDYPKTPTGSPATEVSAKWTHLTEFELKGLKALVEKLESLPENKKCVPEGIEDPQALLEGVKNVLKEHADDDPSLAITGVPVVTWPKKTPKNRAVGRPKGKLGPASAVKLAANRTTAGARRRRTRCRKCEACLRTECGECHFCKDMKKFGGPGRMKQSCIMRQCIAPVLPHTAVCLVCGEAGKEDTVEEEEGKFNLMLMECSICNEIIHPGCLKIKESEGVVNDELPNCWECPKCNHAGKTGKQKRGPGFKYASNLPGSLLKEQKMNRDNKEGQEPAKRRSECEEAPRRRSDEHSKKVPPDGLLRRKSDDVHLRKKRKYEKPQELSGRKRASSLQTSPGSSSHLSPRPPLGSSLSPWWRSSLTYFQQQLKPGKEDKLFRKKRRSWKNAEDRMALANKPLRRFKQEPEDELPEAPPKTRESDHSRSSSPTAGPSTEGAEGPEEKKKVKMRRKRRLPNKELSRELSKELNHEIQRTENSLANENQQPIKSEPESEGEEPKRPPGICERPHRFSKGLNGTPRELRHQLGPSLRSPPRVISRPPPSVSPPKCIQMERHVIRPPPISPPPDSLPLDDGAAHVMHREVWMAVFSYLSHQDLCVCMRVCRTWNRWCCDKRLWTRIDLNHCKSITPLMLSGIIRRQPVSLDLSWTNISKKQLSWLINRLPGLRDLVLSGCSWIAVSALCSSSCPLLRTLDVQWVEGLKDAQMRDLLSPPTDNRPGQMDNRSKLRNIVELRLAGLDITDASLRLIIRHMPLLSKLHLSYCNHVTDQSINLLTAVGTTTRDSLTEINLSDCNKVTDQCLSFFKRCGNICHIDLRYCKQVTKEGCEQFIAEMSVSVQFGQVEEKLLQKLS
The experiment is described as above.

In experiment [3] the target is T3, serum response factor (SRF), endogenous in C2C12 cells (mouse (endogenous in C2C12)) (UniProt Q9JM73).
T3 sequence: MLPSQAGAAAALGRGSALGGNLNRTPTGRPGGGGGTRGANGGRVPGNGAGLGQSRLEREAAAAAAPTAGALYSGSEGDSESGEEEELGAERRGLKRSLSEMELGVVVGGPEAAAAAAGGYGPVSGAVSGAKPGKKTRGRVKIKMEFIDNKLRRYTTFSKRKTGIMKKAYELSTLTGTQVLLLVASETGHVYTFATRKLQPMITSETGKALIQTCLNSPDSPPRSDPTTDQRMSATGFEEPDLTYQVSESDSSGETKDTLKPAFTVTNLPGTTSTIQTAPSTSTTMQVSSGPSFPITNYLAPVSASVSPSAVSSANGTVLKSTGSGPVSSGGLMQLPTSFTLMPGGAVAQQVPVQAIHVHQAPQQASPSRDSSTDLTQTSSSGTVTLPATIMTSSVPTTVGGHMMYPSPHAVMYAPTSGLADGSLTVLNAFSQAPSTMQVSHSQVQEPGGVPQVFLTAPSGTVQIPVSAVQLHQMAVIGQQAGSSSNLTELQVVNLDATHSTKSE
Description: co-IP; endogenous proteins in undifferentiated C2C12 cells; 0.5% NP40 lysis buffer, antibody on protein A/G agarose overnight at 4 °C.

These are yes or no findings as the source states them, for the method shown. In cells and extracts the contact can be indirect. Some results given as binding are weak or reduced against the parent protein; the word gives no strength. For some assays here: Sequences can lack the tags named with a protein.

B1: 3xFlag-KDM2B (pCMV-3xFlag-KDM2B) (protein, UniProt Q8NHM5 1-1336)
chain: T2 sequence
In the case of B1, the binding result in experiment [1] is on record as “binds”.

B2: SRF-C (SRF C domain, amino acids 222 to 508) (domain or fragment, UniProt P11831 222-508)
chain: PDSPPRSDPTTDQRMSATGFEETDLTYQVSESDSSGETKDTLKPAFTVTNLPGTTSTIQTAPSTSTTMQVSSGPSFPITNYLAPVSASVSPSAVSSANGTVLKSTGSGPVSSGGLMQLPTSFTLMPGGAVAQQVPVQAIQVHQAPQQASPSRDSSTDLTQTSSSGTVTLPATIMTSSVPTTVGGHMMYPSPHAVMYAPTSGLGDGSLTVLNAFSQAPSTMQVSHSQVQEPGGVPQVFLTASSGTVQIPVSAVQLHQMAVIGQQAGSSSNLTELQVVNLDTAHSTKSE
Take B2: the binding result in experiment [2] was “no binding”.

B3: SRF-A (SRF A domain, amino acids 1 to 133) (domain or fragment, UniProt P11831 1-133)
chain: MLPTQAGAAAALGRGSALGGSLNRTPTGRPGGGGGTRGANGGRVPGNGAGLGPGRLEREAAAAAATTPAPTAGALYSGSEGDSESGEEEELGAERRGLKRSLSEMEIGMVVGGPEASAAATGGYGPVSGAVSG
For the molecule B3, the binding entry in experiment [2] is recorded as “no binding”.

B4: KDM2B, endogenous in C2C12 cells (protein, UniProt Q6P1G2 1-1309)
chain: MEAEKDSGRRLRAIDRQRYDENEDLSDVEEIVSVRGFSLEEKLRSQLYQGDFVHAMEGKDFNYEYVQREALRVPLVFRDKDGLGIKMPDPDFTVRDVKLLVGSRRLVDVMDVNTQKGTEMSMSQFVRYYETPEAQRDKLYNVISLEFSHTKLEHLVKRPTVVDLVDWVDNMWPQHLKEKQTEATNALAEMKYPKVKKYCLMSVKGCFTDFHIDFGGTSVWYHVFRGGKIFWLIPPTLHNLALYEEWVLSGKQSDIFLGDRVERCQRIELKQGYTFFIPSGWIHAVYTPVDSLVFGGNILHSFNVPMQLRIYEIEDRTRVQPKFRYPFYYEMCWYVLERYVYCVTQRSYLTQEYQRELMLIDAPRKTSVDGFSSDSWLDMEEESCEQQPQEEEEEEEDKEEEGDGADKTPKPPTDDPTSPTSTPPEDQDSTGKKPKAPAIRFLKRTLSNESEESVKSTSMPTDDPKTPTGSPATEVSTKWTHLTEFELKGLKALVEKLESLPENKKCVPEGIEDPQALLEGVKNVLKEHVDDDPTLAITGVPVVSWPKKTAKNRVVGRPKGKLGPASAVKLAANRTTAGARRRRTRCRKCEACLRTECGECHFCKDMKKFGGPGRMKQSCIMRQCIAPVLPHTAVCLVCGEAGKEDTVEEEEGKFNLMLMECSICNEIIHPGCLKIKESEGVVNDELPNCWECPKCNHAGKTGKQKRGPGFKYASNLPGSLLKEQKMNRDNKEGQEPAKRRSECEEAPRRRSDEHPKKVPADGILRRKSDDVHLRRKRKYEKPQELSGRKRASSLQTSPGSSSHLSPRPPLGSSLSPWWRSSLTYFQQQLKPGKEDKLFRKKRRSWKNAEDRLSLANKPLRRFKQEPEDDLPEAPPKTRESDQSRSSSPTAGPSTEGAEGPEEKKKVKMRRKRRLVNKELSKELSKELNHEIQKTESTLAHESQQPIKSEPESENDEPKRPLSHCERPHRFSKGLNGTPRELRHSLGPGLRSPPRVMSRPPPSASPPKCIQMERHVIRPPPISPPPDSLPLDDGAAHVMHREVWMAVFSYLSHRDLCVCMRVCRTWNRWCCDKRLWTRIDLNRCKSITPLMLSGIIRRQPVSLDLSWTNISKKQLSWLINRLPGLRDLVLSGCSWIAVSALCSSSCPLLRTLDVQWVEGLKDAQMRDLLSPPTDNRPGQMDNRSKLRNIVELRLAGLDITDVSLRLIIRHMPLLSKLQLSYCNHINDQSINLLTAVGTTTRDSLTEVNLSDCNKVTDLCLSFFKRCGNICHIDLRYCKQVTKEGCEQFIAEMSVSVQFGQVEEKLLQKLS
B4: the binding entry in experiment [3] is reported as “binds”.

B5: HA-tagged SRF, full length (pCGN-SRF-HA) (protein, UniProt P11831 1-508)
chain: T1 sequence
Take B5: the binding result in experiment [2] is “binds”.
